Assays:
[1] = tested on: adult neural stem cells derived from the subgranular zone of the hippocampus; test: Stemness markers (musashi-1, nestin, SOX-2) in neurospheres, Western blot; type: cell-based, mice; conditions: 7 days; for blockade of the DMT-induced reduction of musashi-1, nestin and SOX-2: antagonist 1 μM with DMT 1 μM
[2] = tested on: adult neural stem cells derived from the subgranular zone of the hippocampus; test: Neural stem cell proliferation (Ki67) in neurospheres; type: cell-based, mice; conditions: 7 days; for blockade of DMT-induced increase in Ki67: antagonist 1 μM with DMT 1 μM
[3] = tested on: adult neural stem cells derived from the subgranular zone of the hippocampus; test: Differentiation of neurospheres into neurons and glial cells (Tuj1, MAP-2, CNPase, GFAP); conditions: for blockade of the effects of DMT on differentiation: antagonist 1 μM with DMT 1 μM; for effect on Tuj1 and MAP-2 expression in the presence of Ritanserin: tryptamine 1 μM after 1 h pre-treatment with Ritanserin 1 μM; for expression of the two neuronal markers Tuj1 and MAP-2: tryptamine alone 1 μM
[4] = tested on: adult neural stem cells derived from the subgranular zone of the hippocampus; test: Neurosphere formation (number and size); type: cell-based, mice; conditions: 7 days; for blockade of DMT-induced increase in neurosphere number and size: antagonist 1 μM with DMT 1 μM
[5] = 3 days differentiation conditions
[6] = DMT 1 μM, vs vehicle-treated cultures

SMILES | blockade of the DMT-induced reduction of musashi-1, nestin and SOX-2 [1] | blockade of DMT-induced increase in Ki67 [2] | blockade of the effects of DMT on differentiation [3] | blockade of DMT-induced increase in neurosphere number and size [4] | effect on Tuj1 and MAP-2 expression in the presence of Ritanserin [3] | expression of the two neuronal markers Tuj1 and MAP-2 [3, 5] | further results
CN1CCN(CCc2ccc(Cl)c(Cl)c2)CC1 [BD1063] | blocked | blocked | blocked | blocked | – | – | –
CCCN(CCC)CCc1c[nH]c2ccccc12 [DPT, N,N-dipropyltryptamine] | – | – | – | – | maintained | increase in the expression | –
CSc1ccc2c(c1)C(N1CCN(C)CC1)Cc1ccccc1S2 (stereo not drawn) [methiothepin] | not blocked | not blocked | not blocked | but not by | – | – | –
CN(C)CCc1c[nH]c2ccccc12 [DMT, N,N-dimethyltryptamine] | – | – | – | – | – | – | protein levels of musashi-1, nestin and SOX-2 in the neurospheres ([1]; DMT 1 μM, vs saline): significantly reduced; number of Ki67-positive cells ([2]; DMT 1 μM): increase; expression of neuronal markers (Tuj1 & MAP-2), oligodendrocyte marker (CNPase) and astrocyte marker (GFAP) ([3]; DMT 1 μM, 3 days differentiation conditions): increase in the expression; number of neurospheres [4, 6]: significantly higher; size of the neurospheres [4, 6]: increased significantly
COc1ccc2[nH]cc(CCN(C)C)c2c1 [5-MeO-DMT, 5-methoxy-N,N-dimethyltryptamine] | – | – | – | – | maintained | increase in the expression | –
COc1ccccc1N1CCN(CCN(C(=O)C2CCCCC2)c2ccccn2)CC1 [WAY100635] | not blocked | not blocked | not blocked | but not by | – | – | –
Cc1nc2sccn2c(=O)c1CCN1CCC(=C(c2ccc(F)cc2)c2ccc(F)cc2)CC1 [ritanserin] | not blocked | not blocked | not blocked | but not by | – | – | –
CCN(CC)CCc1c[nH]c2ccccc12 [DET, N,N-diethyltryptamine] | – | – | – | – | maintained | increase in the expression | –

Source: patent US11723894B2, “Combination product for the treatment of neurological and/or psychiatric disorders” (Consejo Superior de Investigaciones Cientificas (CSIC), priority 2017, dated 2023)
